# Several values for one entry are separate records, joined by “and”; a condition that tells them apart may be missing. Identical values can stand only once. About 620 (0.23%) of roughly 270,000 compounds were called active. The inconclusive results got no clear call from the source; some entries with a clear call stand among them for comparison. The call rests on the fitted dose curve; in most records, active means well fitted inhibition curve with a large enough effect in the polarisation, with a control signal flat (not every such curve was filed as active); inconclusive means small, poorly fitted or top-dose-only effect, or effect the other way, or a change in a side signal; inactive means no such curve, though single readings can be large or run the other way; the % refers to the polarisation. Where the call is inconclusive, the potency comes from a doubtful curve fit. “Side channel” marks fits to a control or component signal instead of the main read-out.
# Molecular target: Menin (Homo sapiens) (UniProt O00255)
# Test: qHTS Assay for Inhibitors Targeting the Menin-MLL Interaction in MLL Related Leukemias: Competition With Texas Red Labeled MLL-derived Mutant Peptide
# Details: fluorescence polarization; series mostly up to 61.6 µM
# Potency means the concentration at half of the fitted maximal effect; tags describe the fitted curve by direction and shape or compound fluorescence and quenching.
# Chain of UniProt O00255 (O00255 whole entry, looked up): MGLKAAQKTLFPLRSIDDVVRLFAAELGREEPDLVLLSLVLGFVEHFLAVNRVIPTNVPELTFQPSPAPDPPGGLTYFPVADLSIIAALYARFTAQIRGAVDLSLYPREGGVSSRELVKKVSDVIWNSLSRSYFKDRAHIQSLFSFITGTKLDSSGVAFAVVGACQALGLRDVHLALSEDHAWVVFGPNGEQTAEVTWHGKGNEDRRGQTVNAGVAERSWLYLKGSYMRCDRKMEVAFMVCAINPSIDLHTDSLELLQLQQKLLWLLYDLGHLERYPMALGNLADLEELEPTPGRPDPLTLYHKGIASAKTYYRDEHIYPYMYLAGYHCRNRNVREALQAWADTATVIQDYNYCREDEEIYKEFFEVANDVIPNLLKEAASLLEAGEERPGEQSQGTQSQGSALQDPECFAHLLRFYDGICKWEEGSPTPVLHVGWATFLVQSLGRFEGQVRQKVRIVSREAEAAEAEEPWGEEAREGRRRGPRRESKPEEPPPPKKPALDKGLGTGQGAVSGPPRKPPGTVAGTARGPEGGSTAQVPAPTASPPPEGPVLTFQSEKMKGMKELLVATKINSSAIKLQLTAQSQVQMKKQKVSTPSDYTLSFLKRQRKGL
row,Compound,Potency
1,Cc1occc1-c1nnc(SCC(=O)c2c(N)n(Cc3ccccc3)c(=O)n(C)c2=O)n1C,"inconclusive: 28.2 µM [fluorescent, side channel, single point]"
2,O=S(=O)(NC1CCCc2ccccc21)c1cnc[nH]1 (stereo not given),"inconclusive: 2.24 µM [inhibitor, partial curve]"
3,O=C(O)Cn1c2c(c3ccccc31)CSc1ccc(Cl)cc1-2,"inconclusive: 25.1 µM [quencher, side channel, partial curve]"
4,COc1ccccc1/C=C/C(=O)NC(=S)NC(C)C,"inconclusive: 35.5 µM [quencher, side channel, single point]"
5,Oc1cccc(Nc2nc(-c3ccccc3)nc3ccccc23)c1,"inconclusive: 5.01 µM [quencher, side channel, full curve]"
6,COc1cc(/C=C/c2nnc3c4ccccc4ncn23)cc(OC)c1OC,"inconclusive: 22.4 µM [quencher, side channel, single point]"
7,O=C(O)c1cc(N/N=C/c2ccc(N3CCOCC3)s2)ccc1Cl,"inconclusive: 25.1 µM [quencher, side channel, partial curve]"
8,NNC(=O)c1sc2cc(C(F)(F)F)cnc2c1-c1ccccn1,"inconclusive: 0.282 µM [fluorescent, side channel, full curve, poor fit]"
9,COc1ccc(C(NC(C)=O)c2cc(Cl)c3cccnc3c2O)cc1OC (stereo not given),"inconclusive: 39.8 µM [inhibitor, single point]"
10,NCCCCCCNS(=O)(=O)c1cccc2c(Cl)cccc12,"inconclusive: 20 µM [inhibitor, single point] and inconclusive: 25.1 µM [fluorescent, side channel, single point]"
11,CNC(=S)N(Cc1ccc(OC)cc1)Cc1cc2cc(C)ccc2[nH]c1=O,"inconclusive: 39.8 µM [fluorescent, side channel, single point]"
12,O=C1CC(SC(=Nc2ccccc2)Nc2ccccc2)C(=O)N1c1cccc2ccccc12 (stereo not given),"inconclusive: 39.8 µM [inhibitor, single point]"
13,COc1cc(OC)cc(C(=O)NCc2ccc3c(c2)cc(C)n3C)c1,"inconclusive: 20 µM [fluorescent, side channel, partial curve]"
14,COc1cccc(S(=O)(=O)NCc2ccc(C(=O)Nc3ccc(Cl)cc3)cc2)c1,"inconclusive: 25.1 µM [inhibitor, single point]"
15,O=C(CSc1nnc(COc2ccccc2)n1-c1ccccc1)c1ccccc1,"inconclusive: 3.55 µM [fluorescent, side channel, full curve]"
16,Cc1nn(-c2ccccc2)c(Cl)c1C(=O)Nc1nnc(C2CCCC2)s1,"inconclusive: 12.6 µM [fluorescent, side channel, partial curve]"
17,O=C(O)c1ccc(S(=O)(=O)N(CCc2ccccc2)Cc2ccc(Cl)cc2)cc1,"inconclusive: 25.1 µM [quencher, side channel, partial curve]"
18,CN(Cc1ccccc1)C(=O)C1CCCN(c2ncnc3c2nc2n3CCCCC2)C1 (stereo not given),inactive
19,COC(=O)c1ccc(NC(=S)NNC(=O)c2ccccc2)cc1,"inconclusive: 22.4 µM [quencher, side channel, partial curve]"
20,CCOc1cc(CN2CCCC(CO)(Cc3ccc(F)cc3F)C2)ccc1OC (stereo not given),"inconclusive: 28.2 µM [inhibitor, single point]"
21,O=C(N/N=C/c1sc2ccccc2c1O)c1ccccc1,"inconclusive: 22.4 µM [quencher, side channel, partial curve, poor fit]"
22,Cc1cccn2c(CN(C)CC3Cc4ccccc4O3)c(C(=O)N3CCCCC3)nc12 (stereo not given),"inconclusive: 2.51 µM [fluorescent, side channel, full curve]"
23,O=C(/C=C(\O)c1ccc(Cl)cc1)C(=O)NNC(=O)C(O)(c1ccccc1)c1ccccc1,"inconclusive: 28.2 µM [quencher, side channel, single point]"
24,c1ccc(N/N=C(\Cc2ncc[nH]2)c2ccccc2)cc1,"inconclusive: 15.8 µM [quencher, side channel, partial curve]"
25,O=[N+]([O-])c1cccc(S(=O)(=O)N2CCc3ccccc3C2)c1,"inconclusive: 39.8 µM [quencher, side channel, single point]"
26,NS(=O)(=O)c1ccc(CCNC(=O)c2ccc(C(=O)c3ccccc3)cc2)cc1,"inconclusive: 39.8 µM [inhibitor, single point]"
27,Cc1cccc(NC(=O)Cn2c(=O)n(CCc3c[nH]c4ccccc34)c(=O)c3cccnc32)c1,"inconclusive: 35.5 µM [inhibitor, single point]"
28,CN1C2CCC1CC(OC(c1ccccc1)c1ccccc1)C2 (stereo not given),"inconclusive: 11.2 µM [fluorescent, side channel, partial curve]"

row,Compound,Potency
1,COC(=O)C1=C(CSc2nc3c(cc2C#N)CN(C)CC3)OC(N)=C(C#N)C1c1ccccc1F (stereo not given),"inconclusive: 35.5 µM [quencher, side channel, single point]"
2,O=C(CSc1nc2ccccc2s1)Nc1nccs1,"inconclusive: 39.8 µM [inhibitor, single point]"
3,O=C(O)c1ccc(Nc2nc(-c3ccccc3)nc3ccccc23)cc1,"inconclusive: 10 µM [quencher, side channel, partial curve]"
4,COC1(c2cc(-c3ccccc3)nc(N)n2)CCCCC1,inactive
5,Cc1cc(NC(=O)/C(C#N)=C/c2ccc(-c3cccc(C(F)(F)F)c3)o2)n(-c2ccccc2)n1,inactive
6,C[C@@H](C(=O)Nc1ccc2ccccc2c1)[C@@H]1C[C@@]1(C)[C@@H](NS(=O)(=O)c1ccc(-c2ccccc2)cc1)c1ccccc1,"inconclusive: 4.47 µM [inhibitor, full curve]"
7,Cc1noc(C)c1S(=O)(=O)N1CCC(C(=O)N2CCN(Cc3ccc4c(c3)OCO4)CC2)CC1,"inconclusive: 35.5 µM [inhibitor, single point]"
8,CCOC(=O)c1c(NC(=O)CSc2nnc3c(Cl)cc(Cl)cn23)sc2c1CCC2,"inconclusive: 28.2 µM [inhibitor, single point]"
9,CCOc1ccc(-n2c(O)c(/C=N/Nc3nc(C)cc(C)n3)c3ccccc3c2=O)cc1,"inconclusive: 25.1 µM [quencher, partial curve]"
10,O=C1C=C(c2ccccc2)OC(c2ccccc2)O1 (stereo not given),"inconclusive: 12.6 µM [quencher, side channel, partial curve]"
11,O=C(NCC1COc2ccccc2O1)c1c[nH]c2ccc(S(=O)(=O)N3CCOCC3)cc2c1=O (stereo not given),"inconclusive: 6.31 µM [quencher, side channel, partial curve]"
12,Cc1ccc(NC(=O)Nc2ccccc2C(N)=O)cc1,"inconclusive: 28.2 µM [quencher, side channel, single point]"
13,CCCCN(CC)C(=O)CSc1nc2ccccc2c(=O)n1CC1COc2ccccc2O1 (stereo not given),"inconclusive: 2.24 µM [fluorescent, side channel, full curve, poor fit]"
14,Cc1ccccc1/C=N/N1C(=O)CSC1=S,"inconclusive: 28.2 µM [quencher, single point]"
15,Cc1nc2nc(SCC(=O)c3cccc([N+](=O)[O-])c3)[nH]c2cc1Br,"inconclusive: 3.98 µM [quencher, side channel, full curve]"
16,Cc1ccc(S(=O)(=O)N2CCN(C3CC4CCC3C4)CC2)cc1 (stereo not given),"inconclusive: 25.1 µM [inhibitor, single point]"
17,O=C(NNC(=S)NC(=O)c1cccc([N+](=O)[O-])c1)c1ccc(O)cc1,"inconclusive: 28.2 µM [quencher, side channel, single point]"
18,O=C1NCCc2c1[nH]c1ccccc21,"inconclusive: 3.55 µM [inhibitor, full curve]"
19,CC(CCc1ccccc1)NC(=O)CN(C)Cc1ccccc1F (stereo not given),"inconclusive: 14.1 µM [fluorescent, side channel, partial curve]"
20,O=C(Nc1ccccc1Cl)NC1(C(=O)NCc2cccnc2)CCCCC1,"inconclusive: 3.98 µM [inhibitor, single point]"
21,COc1cccc(C(=O)Nc2nc(-c3ccc(S(=O)(=O)N4CCOCC4)cc3)cs2)c1,"inconclusive: 39.8 µM [inhibitor, single point]"
22,O=C(CSc1nc2ccc(NC(=O)CSc3nnnn3-c3ccccc3)cc2s1)Nc1ccccc1,"inconclusive: 10 µM [inhibitor, partial curve]"
23,CCOc1ccccc1/C=N/NC(=O)Cc1csc(Nc2cccc(C(F)(F)F)c2)n1,"inconclusive: 39.8 µM [inhibitor, single point]"
24,COc1ccc(-c2coc3c(O)c(OC)ccc3c2=O)cc1,"inconclusive: 35.5 µM [inhibitor, single point]"
25,Cc1ccc(S(=O)(=O)N2CCN(S(=O)(=O)N3CCC(C)CC3)CC2)cc1C,"inconclusive: 3.55 µM [inhibitor, partial curve]"
26,CC(C)(C)c1ccc(C(=O)c2cn[nH]c2-c2ccccc2O)cc1,"inconclusive: 25.1 µM [quencher, side channel, single point]"
27,O=C1CS/C(=N/N=C/c2ccc(OS(=O)(=O)c3ccccc3)cc2)N1,"inconclusive: 28.2 µM [quencher, side channel, partial curve]"

# From PubChem BioAssay AID1768 (National Center for Advancing Translational Sciences (NCATS), 2009)
